From a collection of fitness landscapes (doi:10.1016/j.celrep.2020.107928)
Whole data set: some 81,000 sequences, median “one-hybrid fitness for binding parS DNA” near -0.17, cut for the highest 2% near 0.51. Some of the results follow.

B1: Caulobacter ParB omega fusion; a variant is named by its letters at X, in order, B8GW30 (parent)
chain: MESVVVGEPGMSEGRRGLGRGLSALLGEVDAAPAQAPGEQLGGSREAPIEILQRNPDQPRRTFREEDLEDLSNSIREKGVLQPILVRPSPDTAGEYQIVAGERAWRAAQRAGLKTVPIMVRELDDLAVLEIGIIENVQRADLNVLEEALSYKVLMEKFERTQENIAQTIGKSXSHVANXMRLLXLPDEVQSYLVSGELTAXHARAIAAAADPVALAKQIIEGGLSVRETEALARKAPNLSAGKSKGGRPPRVKDTDTQALESDLSSVLGLDVSIDHRGSTGTLTITYATLEQLDDLCNRLTRGI

Variants of: B1
Test: one-hybrid fitness for binding parS DNA (scaled: cognate 1, non-cognate 0); higher = stronger binding
Conditions: with parS DNA site
Summary of the method: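 Pre- and post-selection plasmids were Illumina-sequenced, three replicate libraries were pooled, and any variant with under 10 reads was removed. The libraries were Caulobacter ParB with four specificity codons randomised, selected in E. coli USO through a HIS3 reporter whose site is 19 bp from the promoter. Cells grew 48 hours at 37°C on M9 without histidine, with 0.1 mM IPTG and 5 mM 3-AT. Fitness is the log change in variant-to-wild-type read ratio, rescaled against cognate and non-cognate.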

Row | Variant | one-hybrid fitness for binding parS DNA
1 | SNNG | ≤ 0.2
2 | RTPA | 0.363
3 | TFSR | ≤ 0.2
4 | HTPG | ≤ 0.2
5 | PCEY | ≤ 0.2
6 | LRWW | ≤ 0.2
7 | DWMC | ≤ 0.2
8 | AFMV | ≤ 0.2
9 | ATLS | ≤ 0.2
10 | LPPM | ≤ 0.2
11 | GNHS | ≤ 0.2
12 | ILRM | ≤ 0.2
13 | NSKA | ≤ 0.2
14 | RCKI | ≤ 0.2
15 | DKKS | ≤ 0.2
16 | WSPG | ≤ 0.2
17 | GKGS | ≤ 0.2
18 | THAY | ≤ 0.2
19 | KYDS | ≤ 0.2
20 | CGLS | ≤ 0.2
21 | QNYP | ≤ 0.2
22 | TASG | ≤ 0.2
23 | KWGG | ≤ 0.2
24 | TRHW | ≤ 0.2
25 | LRRL | ≤ 0.2
26 | ANWL | ≤ 0.2

Row | Variant | one-hybrid fitness for binding parS DNA
27 | LCDP | ≤ 0.2
28 | WRLW | ≤ 0.2
29 | IYLR | ≤ 0.2
30 | RLNI | ≤ 0.2
31 | KTAF | ≤ 0.2
32 | QIHC | ≤ 0.2
33 | RHYY | 0.438
34 | VKDI | ≤ 0.2
35 | TEPL | ≤ 0.2
36 | CTVD | ≤ 0.2
37 | DSNP | ≤ 0.2
38 | PATQ | ≤ 0.2
39 | PRSY | ≤ 0.2
40 | SMSG | ≤ 0.2
41 | VLYA | ≤ 0.2
42 | PTAA | ≤ 0.2
43 | NIYG | ≤ 0.2
44 | VPHI | ≤ 0.2
45 | TYDS | ≤ 0.2
46 | ETHR | ≤ 0.2
47 | PHNT | ≤ 0.2
48 | FFGV | ≤ 0.2
49 | MPPS | ≤ 0.2
50 | HYMV | ≤ 0.2
51 | PMAF | ≤ 0.2
52 | QAWA | ≤ 0.2

Row | Variant | one-hybrid fitness for binding parS DNA
53 | EQRT | ≤ 0.2
54 | ANMW | ≤ 0.2
55 | ISFR | ≤ 0.2
56 | KDVG | ≤ 0.2
57 | LMRW | ≤ 0.2
58 | SLLH | ≤ 0.2
59 | NWNQ | ≤ 0.2
60 | QHNP | ≤ 0.2
61 | RKMA | 0.54
62 | FDQS | ≤ 0.2
63 | TIVG | ≤ 0.2
64 | ETKG | ≤ 0.2
65 | PPRT | ≤ 0.2
66 | NSEV | ≤ 0.2
67 | SNIL | ≤ 0.2
68 | RSWL | ≤ 0.2
69 | NIRA | ≤ 0.2
70 | SYLW | ≤ 0.2
71 | YKVS | ≤ 0.2
72 | STHP | ≤ 0.2
73 | ADNV | ≤ 0.2
74 | FNNS | ≤ 0.2
75 | MTRM | ≤ 0.2
76 | ENNS | ≤ 0.2
77 | LHAS | ≤ 0.2
78 | VRNQ | ≤ 0.2

Row | Variant | one-hybrid fitness for binding parS DNA
79 | PPRN | ≤ 0.2
80 | MNDD | ≤ 0.2
81 | AGPC | ≤ 0.2
82 | QYAC | ≤ 0.2
83 | RRIH | ≤ 0.2
84 | QSKA | ≤ 0.2
85 | RLNT | 0.908
86 | DKRI | ≤ 0.2
87 | RCGG | 1.01
88 | DRDY | ≤ 0.2
89 | NDTY | ≤ 0.2
90 | RVGS | 0.954
91 | PYKV | ≤ 0.2
92 | QHGI | ≤ 0.2
93 | VGGG | ≤ 0.2
94 | TFCY | ≤ 0.2
95 | GNLI | ≤ 0.2
96 | THSI | ≤ 0.2
97 | RWTM | 0.22
98 | PPIL | ≤ 0.2
99 | RKWC | 0.887
100 | EMYS | ≤ 0.2
101 | RMMS | 1.03
102 | ADAC | ≤ 0.2
103 | GPCC | ≤ 0.2
104 | SNTK | ≤ 0.2

Row | Variant | one-hybrid fitness for binding parS DNA
105 | DLWG | ≤ 0.2
106 | YKTT | ≤ 0.2
107 | RSWT | 0.756
108 | EDGL | ≤ 0.2
109 | VEDR | ≤ 0.2
110 | SFPL | ≤ 0.2
111 | QTNV | ≤ 0.2
112 | QKFG | ≤ 0.2
113 | HNFW | ≤ 0.2
114 | RGRM | 0.254
115 | LQSI | ≤ 0.2
116 | KQEL | ≤ 0.2
117 | RGMK | ≤ 0.2
118 | VDER | ≤ 0.2
119 | GTEF | ≤ 0.2
120 | VCIC | ≤ 0.2
121 | DWVS | ≤ 0.2
122 | AMAS | ≤ 0.2
123 | TSYG | ≤ 0.2
124 | NTQV | ≤ 0.2
125 | SCPV | ≤ 0.2
126 | MVHR | ≤ 0.2
127 | HLEP | ≤ 0.2
128 | TLSN | ≤ 0.2
129 | QQFL | ≤ 0.2
130 | QTKT | ≤ 0.2

Row | Variant | one-hybrid fitness for binding parS DNA
131 | PSTN | ≤ 0.2
132 | FRRQ | ≤ 0.2
133 | PCAV | ≤ 0.2
134 | HRCD | ≤ 0.2
135 | EPYC | ≤ 0.2
136 | QTAM | ≤ 0.2
137 | EVRL | ≤ 0.2
138 | GGKC | ≤ 0.2
139 | QKHQ | ≤ 0.2
140 | QQYV | ≤ 0.2
141 | GTCQ | ≤ 0.2
142 | RTRF | 0.627
143 | QWKR | ≤ 0.2
144 | ERPI | ≤ 0.2
145 | YCQS | ≤ 0.2
146 | GCYR | ≤ 0.2
147 | EPQP | ≤ 0.2
148 | FSRT | ≤ 0.2
149 | RLLV | ≤ 0.2
150 | EDAR | ≤ 0.2
151 | HSTQ | ≤ 0.2
152 | GLGV | ≤ 0.2
153 | LIKP | ≤ 0.2
